# Test results: the supplement of paper PMC11417369
# ± gives the standard deviation of the averaged measurements. The list shows a part of the results.
# Tested on: PfAP2-EXP AP2 domain (GST-tagged)
# Test: gcPBM binding intensity (ln(normalized median fluorescence intensity)); higher = stronger DNA binding
# Method in brief: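 In this array assay, P. falciparum DNA-binding domains with a GST tag, expressed in E. coli, were applied for 1 h to primer-extended double-stranded 36-bp intergenic genomic probes and negative controls on an Agilent 4 × 180k array. Bound protein was visualised with Alexa488 anti-GST antibody at 488 nm. Binding intensity is the highest Masliner-normalised natural-log median intensity across replicate spots of either probe orientation.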
row,Sequence,gcPBM binding intensity (ln)
1,TAAAAATAATATATTTGTACATATGTGTATACATAA [XGTACX_site741],8.43 ± 0.31
2,AAAAAAAAAAAAAAAAGTACTAAATGTAAAAGAATA [XGTACX_site2164],8.51 ± 0.59
3,CAAGCACAGAAACACACACACACACCGACACAGACA [CACACA_site4359],8.52 ± 0.47
4,TTTTTTTTTTTTTTTTGTACATAATTATATATTTAC [XGTACX_site7540],8.29 ± 0.55
5,TAGTATTATTATTATGCACACAAAAATATTTATACA [CACACA_site9219],8.48 ± 0.17
6,AGCATTTCTTTTACATGTACATAATATTTTTAATAA [XGTACX_site1968],9.21 ± 0.42
7,TATATATGTATGTATGCATGCCCTTTTTTAAAAAAA [TGCATGCA_site434],9.07 ± 0.42
8,AAAAAAAAAAAAAAAAAAATAAAAAATAAATAAATA [CACACA_negctrl_site1498],8.36 ± 0.13
9,AAGAAAAAACAAACATGTACACATAATTTAGTTTTT [XGTACX_site3121],8.37 ± 0.2
10,CAATTAAAGAAAAACAGTACGTGTATCAAACATCCT [XGTACX_site8990],8.6 ± 0.47
11,ATTTTTCCTCTCTTTTGTACTTATATATATATATAT [XGTACX_site7405],10.1 ± 0.24
12,ATAAATACTTTTTGGTGTACACTTTTAAATGAAAAA [XGTACX_site3042],9 ± 0.11
13,ATATGCTAATAAAATTGTACATATTATTCATATTGT [XGTACX_site2344],8.29 ± 0.32
14,TGACTACATAAAATGACACACACAAACTTTAAAATT [CACACA_site9151],8.62 ± 0.4
15,ATATATTTTTAGCACAGTACAATATAATTAAATATA [XGTACX_site6779],8.54 ± 0.39
16,AAAAGTTGTTTATAATGTACAAGGTAGAAAAAAACA [XGTACX_site1454],9.04 ± 0.57
17,TAAATGGATTGTTCAGGTACACATAAATATGATATT [XGTACX_site6963],8.31 ± 0.37
18,ATATTATATAATAATGCATGCACCTTATTTTCATTT [TGCATGCA_site405],10.2 ± 0.44
19,ATTATATTATTTTAAAGTACACACATATATTAATAT [XGTACX_site4769],8.63 ± 0.24
20,AACAAAATAAAAATAACACACACATTTATATATATA [CACACA_site8313],9.13 ± 0.099
21,TATTATATCGAACACTGTACTTTTTTATTCAACCTA [XGTACX_site493],8.65 ± 0.45
22,GCCTTTTTATTTAGAACACACACAAAAAAAAAAAAA [CACACA_site8520],8.3 ± 0.37
23,AATAATAAATATATATATATATATATATATATATTT [CACACA_negctrl_site786],8.46 ± 0.014

row,Sequence,gcPBM binding intensity (ln)
1,ATATATATATATATAGTGCAAATATCTTCTTTATAA,10.3 ± 0.3
2,TAATAAACCAAACTAAACAATATATCAAAAAGCACA [CACACA_negctrl_site269],8.82 ± 0.33
3,TTTTCAATTAATAATACACACATGTATATATTATTA [CACACA_site3311],8.4 ± 0.47
4,TACAAATACATTACATGTACATATTTAATAATATCA [XGTACX_site2075],8.32 ± 0.11
5,AAGAAAAATATATATATAAATAAATAAATATATATA [TGCATGCA_negctrl_site330],8.27 ± 0.29
6,TTTGAAAAGTATGAGGTGCAAAAAATGTAATGAAAT,9.31 ± 0.25
7,TTTTTCTGTCGTTGTTGTACTTGAGGAGTAACAATT [XGTACX_site7852],8.92 ± 0.48
8,CATTTTAAAACAGACACACACCAAAAAAAAAAAAAA [CACACA_site6259],8.28 ± 0.56
9,TATATTATTATGCATAGTACGTACTGTGATAAGAAT [XGTACX_site2956],8.73 ± 0.35
10,ATATAAGAATAAATAGTGCAAAATAAATGATTATTT,8.79 ± 0.18
11,AATACGAAGGATAAGAGTACTAATTAAATAAATGAA [XGTACX_site523],8.96 ± 0.28
12,GTATATAAGTATATATGTACATATATTTTATATATA [XGTACX_site4745],8.42 ± 0.23
13,TTTTATAATTTAAAATAATGAAACTTCTTTCTATTT [TGCATGCA_negctrl_site324],8.08 ± 0.33
14,TTTTTTTTTTTTTTGGTGCGATCTTTTAAATGATCC,8.37 ± 0.49
15,TTTAAATTTTAATATGCACACAAAATGTTATATTAA [CACACA_site8015],8.3 ± 0.46
16,TTTCTGATATTTTTATATTTTCTTATATATATATAT [GTGCAC_negctrl_site652],9.94 ± 0.19
17,AAAAATATAATATAATGTACACAAAAAAAAAAAAAT [XGTACX_site4914],8.65 ± 0.37
18,ATTTGTAATTTATATTCACACATTCAAAAAAATGAG [CACACA_site6057],8.24 ± 0.4
19,TATAAATTTGTTGTTGCATGCAGTATACCAAAAAAA [TGCATGCA_site445],10.1 ± 0.52
20,TAAAATGTAATCTGAACACACATATTTTTTTAATAT [CACACA_site1768],8.12 ± 0.52
21,AATAGCCCATATGGAATACACACTGAAAATAAAAAA [CACACA_site3373],8.82 ± 0.52
22,CCATAAAAAGGATACACACACACACCGACATATATA [CACACA_site4653],8.65 ± 0.55
23,GTATTATATTTCAACTGTACGTAAAACTATTAAAAT [XGTACX_site3679],8.75 ± 0.27

row,Sequence,gcPBM binding intensity (ln)
1,ATAAAGCCATACAATACACACATTTTACATGGGGGT [CACACA_site9072],9.7 ± 0.38
2,CAAAAAAATGTGAAGGCATGCAAATATGTAAAATAA [TGCATGCA_site921],9.64 ± 0.42
3,TTCATTTAGCAAGAATGTACTTATATATATATATAT [XGTACX_site3401],9.93 ± 0.32
4,CTTTCTTATTTGAACGCATGCATTTGTACCTTTTAT [TGCATGCA_site671],9.78 ± 0.26
5,CATGCAAAAAATTCCACACACACACCCACATATAAA [CACACA_site1229],8.57 ± 0.47
6,TATATACAAAATGCCTGTACATATATATTTATTTAT [XGTACX_site761],8.38 ± 0.36
7,AATTATTTATCGGAATGTACATAAAAACATATGTAT [XGTACX_site7443],8.95 ± 0.44
8,AATAATATCATTTAGACACACACTCTTACAATATGT [CACACA_site8832],8.61 ± 0.45
9,ACCTACATAACATACACACGCATATATATAATTTTA [CACACA_site2847],8.99 ± 0.46
10,TATTTAATAAAGAAATAAAAATAAAGAAAAAAAAAA [CACACA_negctrl_site74],8.34 ± 0.36
11,GGCAACAATGTAGATTGTACATATGAATTTTACAAT [XGTACX_site5655],8.44 ± 0.31
12,ATATATATTATCATTGTGCACTTATTTATATACCTT,9.38 ± 0.13
13,ATATTTTGTTTTATAGTGCACATGGGCATATATTAA [GTGCAC_site9435],8.88 ± 0.26
14,TTTACTTTTTTTTCTTGTACTCATACATACTATCAT [XGTACX_site4919],8.9 ± 0.32
15,AAATTTCAATAATCTACACACATAAAAAAACAAAAG [CACACA_site1702],8.82 ± 0.52
16,TTTAATAAATAAATAAATAAAATATATTAAAAACCA [CACACA_negctrl_site80],8.38 ± 0.36
17,ATATTTTATTATTGTTGTACTTTTTTTTTTTGATTG [XGTACX_site4091],8.73 ± 0.5
18,ATAATATGAAAACACACACACACACTAATAAAAAAA [CACACA_site8617],8.51 ± 0.35
19,ATATAAAAATTAAAATGTACATATCTTATTATAATA [XGTACX_site983],8.32 ± 0.34
20,GTTTAAAAAAATTATCAACTTTAAAAAGGTAACATT [XGTACX_negctrl_site203],8.26 ± 0.42
21,TAATAAAATAATATCACACATATTTATATATATTAT [CACACA_site5814],8 ± 0.33
22,CAACATAAAAATTAAGCATGCAATAGACTTGTGTTG [TGCATGCA_site417],9.66 ± 0.37
23,GTAGTAAATAGGAGGATGCATATGGCACACATTATA [TGCATGCA_negctrl_site59],9.02 ± 0.26

row,Sequence,gcPBM binding intensity (ln)
1,TTATCACATAAACGATGTACGTACTAGGTTTTTTTT [XGTACX_site2147],8.49 ± 0.4
2,TTTTTTTTTTTTTTTTTTTTCATTCAATTATATTTA [CACACA_negctrl_site712],8.04 ± 0.33
3,ATAAAAAGGAAACACACACACACACCCATATATATA [CACACA_site904],8.73 ± 0.44
4,TGAATAATATACATACGTACATACATATATATAATA [XGTACX_site1302],8.32 ± 0.3
5,AAAGGAATATAATGATGTACACAAATATATATACAT [XGTACX_site5347],8.66 ± 0.33
6,AACTAATATAATAATACATGCACATAAAAATATATA [TGCATGCA_site606],9.01 ± 0.14
7,TATTTTTTTATTTGTGCATGTCATATTTAAACATAA [TGCATGCA_site1006],8.93 ± 0.38
8,CACGCATACGGACACACACACACACCGATATATATA [CACACA_site4521],8.72 ± 0.39
9,TATATGTTTAATTTCACACACAAATATACATTTTAA [CACACA_site4171],8.34 ± 0.38
10,AGTAGATTTTTATTAGTGCATTTTATACTACAAAAA,8.55 ± 0.21
11,AAGAAAATGTAGAATTAGAAATAAATGAAGAAATGA [TGCATGCA_negctrl_site548],8.9 ± 0.42
12,CATTAGCATTTTATTACACACAATAAATTAGAAGTA [CACACA_site7837],8.4 ± 0.35
13,TTTTAAAACAATGAGATTCCTTTCTTTTTTTCTTTT [CACACA_negctrl_site1320],7.96 ± 0.59
14,ATATTTATTTATATCATACACACTAATATGTATATT [CACACA_site7576],8.54 ± 0.3
15,CTTAATGATAAATACATACACACAAAAAATAATATA [CACACA_site2577],8.64 ± 0.4
16,TATCCCTTAGAATACACACCCATATGAGGGTGAACT [CACACA_site5610],8.22 ± 0.42
17,CGCAAAACAATGATACGTACATATATATATATATAT [XGTACX_site5883],10.3 ± 0.33
18,ATATTCTCTTAAATATGTACGTATGTATATATATAT [XGTACX_site5885],9.68 ± 0.16
19,ATTCTTAAATGTGGTTGTACATATTATCACCTTTAA [XGTACX_site8188],8.56 ± 0.35
20,TTTTTAATTTTATATACACACATAAAAGATATGAAG [CACACA_site7470],8.24 ± 0.38
